Results on 167 variants are retold here after the RNAGym collection of RNA variant scans (doi:10.1093/nar/gkz1192).

The source gives no read counts; variants with many changes may rest on few reads.

B1: CPEB3 Ribozyme (parent)
chain: UAACAGGGGGCCACAGCAGAAGCGUUCACGUCGCAGCCCCUGUCAGAUUCUGGUGAAUCUGCGAAUUCUGCUGUAUAUCUC

In the data set the parent is B1. The data set is described as follows: self-cleavage, relative activity (ratio to wild type); higher = more cleavage; in vitro, sequencing. The gist of the method:
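Barcoded CPEB3 ribozyme mutants, produced by rounds of error-prone PCR, self-cleaved while being transcribed with T7 RNA polymerase for 5 hours at 37°C and during a subsequent 15 min DNase I step before EDTA was added. Sequencing of template-switched cDNA on Illumina gave cleaved and total reads, and DNA sequencing assigned barcodes to variants. Each variant's relative activity is its cleaved/total read fraction divided by the unmutated ribozyme's fraction, averaged across three batches. A variant needed a minimum of 5 reads.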
As for A21G G42A A56U A57G A75G, the self-cleavage stood at 0.05.
C23A G30U A47G U58A U60A G63A A64G: the self-cleavage turned out to be 0.07.
For A21G C40U U48A A64U, the self-cleavage was 0.11.
Consider A21U U26C A56G A64G U72C, for which the self-cleavage worked out at 0.06.
As for G22U G53U G63A, the self-cleavage is 0.29.
As for A21U U26A U43C A45C U67C G70A, the self-cleavage was determined as 0.23.
Take A21U C29U G33A C34U U43C U48C G52A: the self-cleavage is 0.06.
With A21G U74C U80C, the self-cleavage worked out at 0.54.
Then A21G U60A C62U, with 0.41; and C23G G42A U58A, with 0.07.
Then A21G U25C G42U A65U, with 0.07; and A21G U58A U66C, with 0.28; and A21G U26C A56U C62G U74A, with 0.1.
With A21U U49A U51C U58C the figure was 0.13.
With A21G U41A C59U U60A, the self-cleavage is 0.1.
In the case of A21U G55A U78C U80C, the self-cleavage was determined as 0.14.
Turning to C23A U25C U78C, the self-cleavage worked out at 0.23.
In the case of A21G U25C U51C U78C, the self-cleavage came out at 0.05.
With A21G U25C U69A G70A the figure was 0.13; with A21G U31C A64U, 0.08.
As to A21G U58C U74A, the self-cleavage worked out at 0.42.
On to A21U C62G U67C, for which the self-cleavage worked out at 0.36.
With C23U A35G G70A U72C the figure was 0.28; with A21G U26C A28G A45G, 0.43.
A21U A47U A56G: the self-cleavage was determined as 0.17.
With A21G U43A U51A U67C U69C the figure was 0.15; with A21G U54C G61A A75U U78C, 0.14.
With A21G U31C A47G U60C, the self-cleavage was determined as 0.2.
Take A21G C62G U72C A75G: the self-cleavage was 0.28.
Consider A21G U31C A45G A77G, for which the self-cleavage stood at 0.06.
With C23A C37U U43C A57G U66C the figure was 0.08; with C23U U26C G52U A65G U66A U67C, 0.07.
With A21G U25C C71U U76A the figure was 0.07.
With C23A U25C A28G U69C the figure was 0.09; with C23A A64U U78C, 0.14; with A21U A28G A47U U72C, 0.13.
With C23U C40A U41G A45G U74C A75G, the self-cleavage was 0.19.
Take G22U U26C A35G G63A: the self-cleavage stood at 0.08.
For G22A U26C A47G, the self-cleavage is 0.09.
As to A21U A28G A45C G52C U69A, the self-cleavage was found to be 0.13.
With A21U C39U A64G the figure was 0.1; with C23G C39U U72A, 0.12; with A21U U25G C29U G36U C40U U49C U54G, 0.02.
On to A21U U26A U49A A65G, for which the self-cleavage is 0.14.
In the case of C23G A28G U48C, the self-cleavage came to 0.05.
For C23U A45U A77U, the self-cleavage turned out to be 0.39.
For G22A U31C G36C G53A U58C, the self-cleavage amounted to 0.14.
For A21G U25G U41C U69A, the self-cleavage turned out to be 0.08.
Regarding C23U C50G A75C, the self-cleavage came out at 0.11.
For A21G U31A A47U, the self-cleavage was determined as 0.15.
As to A21G U48C A56G U76C U78C, the self-cleavage turned out to be 0.25.
A21G U26C U49A U69A: the self-cleavage amounted to 0.04.
With A21G G30A C38A U66C U72C, the self-cleavage came to 0.22.
For C23G C44U A57G U78A, the self-cleavage came to 0.23.
With A21G G22C G33C U43C U49C G55C, the self-cleavage is 0.13.
With A21G U26A C34G A35U A45C U80A, the self-cleavage came to 0.04.
With A21G U31C U41A A57G, the self-cleavage is 0.15.
Then G22U U43C A45U U54G A56U A75G, with 0.05; and C23U C32A A45G, with 0.17; and G22A U51G A56G, with 0.09.
Consider A21G U31C U43C U60C A77G, for which the self-cleavage is 0.04.
For A21U U41A U43C A64G U78C, the self-cleavage turned out to be 0.08.
Turning to C23U U31G U58A, the self-cleavage stood at 0.06.
With G22A U25C U41C A45G the figure was 0.09; with A21G G22A U66C U80A, 0.11; with A21U A28G U31C A65U U80A, 0.1.
With G22C C29U U60C C62A, the self-cleavage turned out to be 0.06.
As to A21U A35U U41C U43A, the self-cleavage is 0.09.
With A21U U43C A45C U67C G70A the figure was 0.14.
On to C23G U48C U66C U78A, for which the self-cleavage was found to be 0.2.
For A21G U26A U43A A45G A75U, the self-cleavage worked out at 0.31.
Consider A21G U26C A47G, for which the self-cleavage is 0.29.
On to A21G U49C A65G U72C, for which the self-cleavage came out at 0.12.
Turning to A21G G36A U49C, the self-cleavage was 0.32.
As for C23A C34A A47G, the self-cleavage came out at 0.25.
Then A21U C29U U74C, with 0.41; and G22A U26A U49A U51A A56U, with 0.07; and A21U U60C U72C A77U, with 0.18.
Turning to A21U G55A U69G, the self-cleavage was 0.1.
For A21G G33A A35G U66G U69C, the self-cleavage worked out at 0.06.
Consider A21G U25C U31A U43A G46C, for which the self-cleavage came out at 0.06.
Then A21G U41A A56U A57G U67C, with 0.13.
With A21G C59U A65G U72A the figure was 0.09.
Turning to A21G U25A A35U C37U, the self-cleavage is 0.13.
In the case of A21G G52A U66C U69C, the self-cleavage came out at 0.79.
For A21G U48C U49A U60C U66C, the self-cleavage worked out at 0.21.
C23G U31C U78C: the self-cleavage worked out at 0.15.
With G22A C50A A65G U80C the figure was 0.23.
As to G22U U48C A65G, the self-cleavage came to 0.08.
Regarding A21U U43C A57G U72C U78C, the self-cleavage was found to be 0.35.
Turning to A21U G36U U67C, the self-cleavage came out at 0.08.
On to A21G U51A U69A U72C U78A, for which the self-cleavage is 0.18.
For A21G G33A C40U U41A U60C, the self-cleavage was 0.13.
Then A21G U51C U54A U58A, with 0.2; and A21G C40U A47G, with 0.15.
Then A21U C44U A56G U76C, with 0.06; and C23U U26C U31C U60C U80A, with 0.05; and A21G U25C A56U U60A U66G, with 0.08.
Consider G22U A28G U31A C40U U48C U51C U69C, for which the self-cleavage stood at 0.
Regarding A21G U25C U41C U60C U80A, the self-cleavage was found to be 0.27.
C23A U31C A65G: the self-cleavage is 0.08.
With A21G U41C U67C the figure was 0.21; with A21G G33C U49C U67C G70C, 0.12.
Take A21G U69G U76G: the self-cleavage was 0.43.
Turning to A21G U51C U67C, the self-cleavage was 0.56.
For A21G G36C C44A A45G, the self-cleavage was determined as 0.16.
Then C23U A28G U31C, with 1.01; and A21G U25G U41A U74G, with 0.35; and A21U U31A U54C U60C U66A, with 0.08.
Then A21G U41A U58C C59A, with 0.1; and A21G U41C A77G U80C, with 0.57.
Take A21G C40U U60C: the self-cleavage was found to be 0.06.
As to A21G U31A U48C U66A U80A C81U, the self-cleavage was determined as 0.09.
In the case of A21U U41A U58A C59U C68A, the self-cleavage worked out at 0.07.
Take A21U U41A U72C: the self-cleavage was 0.44.
With A21G U26A A45U U67A the figure was 0.35; with A21G U48C U51A A56U, 0.16; with C23G U26A A45G, 0.09.
For the variant A21G U54C U80C, the self-cleavage was 0.7.
As to G22A A28C U49A, the self-cleavage is 0.15.
With A21G C62U U74C the figure was 0.25; with C23U U26C U41C U48C, 0.1.
Consider C23U U26C G33C G53U U54C, for which the self-cleavage is 0.1.
With A21G C40U U76A the figure was 0.17; with G22A U49C U51C U69A U78G, 0.05; with A21U U25A U26A U51A, 0.23.
In the case of A21U U25C U49A U69C U78C, the self-cleavage came to 0.05.
On to A21U G24A U41C A47G A56C, for which the self-cleavage turned out to be 0.07.
Consider C23A A35G U49C U80A, for which the self-cleavage was 0.08.
As for A21G G30C U41A A45C A56G, the self-cleavage stood at 0.25.
Turning to A21G U26A U60C U69A U80C, the self-cleavage was determined as 0.25.
On to A21G U51A U58C U72A A75U, for which the self-cleavage is 0.21.
Then A21G U25C U43C U48A C59A U72A U76C, with 0.05.
With C23G U25C U51A A65G, the self-cleavage came to 0.19.
Then C23A U51C U74A A75G, with 0.08.
With C23U A35G U41C U49C U67C U72A the figure was 0.12; with A21G U41C A56U U66C, 0.82.
A21G G30A U41C A56G: the self-cleavage was determined as 0.18.
As to A21G U43A A57G U69A, the self-cleavage came out at 0.23.
Regarding A21G U31C U60A, the self-cleavage is 0.35.
Take A21G U31C G36C A47G G53A A65U U66C: the self-cleavage came out at 0.03.
Take A21G C37U U67A: the self-cleavage was 0.46.
As for A21G U51A U80C, the self-cleavage was 0.85.
As for C23U G63C A64U U80C, the self-cleavage stood at 0.09.
Take A21U C23U A45G A64G: the self-cleavage amounted to 0.26.
With A21G U25C U31A U80C, the self-cleavage is 0.11.
C23A U25C A35G: the self-cleavage was 0.27.
Take A21U A35G C50U: the self-cleavage amounted to 1.21.
As to A21U G24C A35G A57G, the self-cleavage amounted to 0.13.
With A21G U31C A35G U41C A64G the figure was 0.33; with G22A U41C U43A, 0.4.
Take A21G C40U U41A A45U U72C: the self-cleavage was 0.34.
Consider A21U U26C G30A U43C U51C A57U U72A, for which the self-cleavage amounted to 0.5.
In the case of A21G U41A A47U, the self-cleavage was determined as 0.22.
For the variant A21U U25A A35G, the self-cleavage worked out at 0.2.
Take A21G U25C U31G U41C U66C: the self-cleavage is 0.25.
For the variant A21G U43C U51C A64G U66C, the self-cleavage came to 0.12.
A21U A28U U31C C39G U43C: the self-cleavage is 0.09.
For the variant A21G U72G U78C U80A, the self-cleavage stood at 0.79.
As to A21G C59A G70A, the self-cleavage was 0.25.
With A21G U43A U48C A57G U67C, the self-cleavage came out at 0.09.
Consider A21G U49C A57U U72A U78C, for which the self-cleavage came to 0.09.
In the case of C23U U26C G73C U78C, the self-cleavage was found to be 0.22.
Take A21G U31A C37U A65U: the self-cleavage was 0.18.
Turning to A21U A35G A65G U66C, the self-cleavage was 0.57.
For A21G U25C U51C U54C, the self-cleavage was determined as 0.25.
For A21U A28U U48G A75U, the self-cleavage worked out at 0.08.
